Measurements reported in PubChem BioAssay AID1963827 (Molecular Pharmacology Branch, DTP, NCI, 2024).
The source holds more than one record for some entries. Only these are listed. The source may hold further records. Values that stand side by side are repeats in other runs, samples, wells, individuals or studies. Counts like (3×) say how often a value occurs here. Marks such as [2022-09] give the month of the run.

Test system: 994946-033-R-J1-PDC complex spheroid viability
Test: Anticancer human tumor 994946-033-R-J1-PDC patient-derived melanoma cell line growth inhibition [POLQ]
Details: stronger effect = lower value
Experimental: Multicellular complex tumor spheroid response to Polymerase (POL) inhibitors (novobiocin, ART-558, RP6685) in combination with a variety of drugs and investigational agents in selected tumor cell lines
The POL inhibitors (novobiocin, ART-558, and RP6685) were evaluated both individually and in combination with standard of care and investigational anticancer small molecules within a complex spheroid model of solid tumors. . Complex spheroids include a stromal component modeled by human endothelial cells (HUVEC) and fibroblasts modeled by human mesenchymal stem cells (MSCs). The concentration ranges selected for each drug and investigational agent were based upon clinically achievable concentrations if the clinical Cmax of the agent was known.
Compounds. The drugs and investigational agents: novobiocin (NSC847541), ART-558 (NSC835418), RP-6685 (NSC848927), peposertib (NSC802822), ceralasertib (NSC780249), elimusertib (NSC800525), camonsertib (NSC841442), AZD-1390 (NSC803789), olaparib (NSC753686), talazoparib (NSC767125), rucaparib (NSC756644), sotorasib (NSC818433), MRTX-1133 (NSC836407), SN-38 (NSC673596), topotecan (NSC609699), epotoside (NSC141540), doxorubicin (NSC123127), gemcitabine (NSC613327), 5-fluorouracil (NSC19893), paclitaxel (NSC125973), vemurafenib (NSC761431), MSA-2 (NSC828583), SN-011 (NSC837082), adavosertib (NSC754352), prexasertib (NSC758257), carboplatin (NSC241240) and oxaliplatin (NSC266046), were obtained from the National Cancer Institute (NCI) Developmental Therapeutics Program Chemical Repository (21). The FDA-approved anticancer drug set is available from the Developmental Therapeutics Program at https://dtp.cancer.gov/organization/dscb/obtaining/. […] The stock solutions were prepared in dimethyl sulfoxide (DMSO, Sigma-Aldrich, St. Louis, MO, cat. D2650), except for the platinum compounds which were prepared in saline (Quality Biological, Gaithersburg, MD, cat. 114-055-101), at 800-fold the tested concentration and stored at -70 degrees C prior to their use. All drugs and investigational agents were tested over a range starting from a high concentration at or near the clinical Cmax and decreasing in half-log increments. If the clinical Cmax for an agent had not been determined, the highest concentration tested was 10 microM, except for SN-38, which was tested at a high concentration of 1 microM.
Cell Culture. All cells were maintained in an incubator at 37 degrees C and 5% CO2 with 95% humidity. The PDC lines were cultured according to standard operating procedures established by the NCI PDMR (https://pdmr.cancer.gov). Table 3 of the manuscript, lists the cell lines along with the number of the three cell types plated to form the mct-spheroids and media for tumor cell growth. After thawing, all PDC lines, except 997537-175-T-J1-PDC and 415267-285-R-J2-PDC, were cultured in Matrigel-coated flasks prepared with a working solution of 1X Ham's F-12 nutrient mix, without supplementation (Thermo Fisher Scientific, cat. 11765054), 100 U/mL penicillin-streptomycin (Thermo Fisher Scientific, cat. 15140122), and 2.5% Matrigel (Corning Inc., Corning, NY, cat. 354248) for the first three passages. The two PDC lines 997537-175-T-J1-PDC and 415267-285-R-J2-PDC were cultured on uncoated flasks. The 857933-349-R-J2-PDC line was cultured in 6C/Colon 1B media containing advanced DMEM/F-12 (Thermo Fisher Scientific, cat. 12634028), 10 mM HEPES (Thermo Fisher Scientific, cat. 15630080), 1X GlutaMAX supplement (Thermo Fisher Scientific, cat. 35050061), 0.1 mg/mL primocin (InvivoGen, San Diego, CA, cat. ant-pm-2), 10% defined fetal bovine serum, heat inactivated (HyClone Laboratories Inc., Logan, UT, cat. SH30070.03HI), 50% L-WRN conditioned media (ATCC, cat. CRL-3276), 1.25 mM N-Acetyl-L-cysteine (Sigma-Aldrich, cat. A9165), 10 mM nicotinamide (Sigma-Aldrich, cat. N0636), 1X B-27 supplement (Thermo Fisher Scientific, cat. 17504044), 1X N-2 supplement (Thermo Fisher Scientific, cat. […]
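Note: spheroids exposed to drugs for 7 days; 100% = DMSO vehicle treated spheroids.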

With `Cc1cccc(N(C)C(=O)C2C(O)CCN2c2nc(C)cc(C(F)(F)F)c2C#N)c1` (stereo unspecified) the viability, T/C (compound alone 0.0316 µM) was 84.8, 92.3, 96.9, 110, 98.9, 89, 86, 85.2% [2023-10] and 102, 94.4, 84.1, 107, 113% [2023-11], the viability, T/C (compound alone 0.316 µM) was 86.3, 86.7, 96.9, 114, 113, 89.2, 96.8, 98.9% [2023-10] and 105, 97.4, 84.1, 81.4, 99.2% [2023-11] and the viability, T/C (compound alone 1 µM) was 83.4, 93.9, 104, 79.3, 109, 98.7 (2×), 102% [2023-10] and 72.7, 89, 92.9, 80.9, 94% [2023-11]. For the same molecule, the viability, T/C (compound alone 3.16 µM) was 96.8, 85.2 (2×), 105, 110, 106, 82.8, 81% [2023-10] and 92.7, 79.8, 87.5, 95.8, 75.7% [2023-11] and the viability, T/C (compound alone 10 µM) was 91.5, 67, 95.6, 84.3, 109, 122, 91.3, 79.1% [2023-10] and 90, 85.3, 89.1, 115, 98.8% [2023-11].

In the case of `Nc1ccc(C#CCN(C(=O)Cc2ncc(C(F)(F)F)cc2C(F)(F)F)c2ccc(F)cc2)nn1`, the viability, T/C (compound alone 0.0316 µM) was 75.5, 80.5, 99.4, 80.7, 105, 110, 101, 95.1, 79.8, 80.8, 112, 82, 94.3%, the viability, T/C (compound alone 0.1 µM) was 75.7, 119, 111, 93.7, 83.5, 121, 88.9, 104, 82.6, 81.1, 92.5, 90.3, 110% and the viability, T/C (compound alone 0.316 µM) was 96, 97, 101, 76.7, 106, 91.8, 82.8, 84.4, 80.9, 68, 108, 90.3, 76.3%. For the same molecule, the viability, T/C (compound alone 1 µM) was 104, 91.8, 89.8, 95.3, 78.7, 96.5, 102, 92.8, 77.5, 86.3, 108, 82.8, 116% and the viability, T/C (compound alone 3.16 µM) was 101, 93.4, 103, 98.5, 79, 77.4, 102, 62.5, 77.9, 87.3, 96, 92.4, 74%.

`COC1C(OC(N)=O)C(O)C(Oc2ccc3c(O)c(NC(=O)c4ccc(O)c(CC=C(C)C)c4)c(=O)oc3c2C)OC1(C)C` (stereo unspecified) was tested, and the viability, T/C (compound alone 0.0316 µM) was 130, 92.3, 95.4, 90, 110, 104 (2×), 105, 101, 108, 98.9, 106, 90.1%, the viability, T/C (compound alone 0.1 µM) was 85.6, 127, 99.4, 120, 101, 98.8, 82.9, 95, 91.9, 103, 98.9, 79.3, 95.3% and the viability, T/C (compound alone 0.316 µM) was 85.8, 118, 88.5, 103, 74, 97.1, 106, 81.7, 75.3, 101, 83.6, 115, 68.8%. For the same molecule, the viability, T/C (compound alone 1 µM) was 83.2, 108, 81.8, 116, 93.2, 89.6, 130, 117, 99.5, 86.5, 100, 80.9, 110%, the viability, T/C (compound alone 3.16 µM) was 103 (2×), 90, 100, 86.4, 86.7, 98.5, 96.1, 91.2, 92.2, 85.2, 85, 116% and the viability, T/C (compound alone 10 µM) was 113, 102 (2×), 107, 79.8, 96.2, 82.7, 105, 99.8, 81.7, 94.3, 120, 89.5%.
